From patent publication US7414110B2, “Human calcium channel compositions and methods” (Merck & Co., Inc., priority 1990, dated 2008)

Molecular target: T1, human neuronal calcium channel α1D subunit (Homo sapiens, UniProt Q01668, S1346F/Y1433H)
T1 construct: Portions of these partial cDNA clones were ligated to generate a full-length α1D cDNA in a eukaryotic expression vector; expressed in transfected cells; host or cells: HEK 293 cells, transient
Excerpt: Pflugers Arch. 391:85-100].

T1 sequence (Q01668 whole entry S1346F/Y1433H): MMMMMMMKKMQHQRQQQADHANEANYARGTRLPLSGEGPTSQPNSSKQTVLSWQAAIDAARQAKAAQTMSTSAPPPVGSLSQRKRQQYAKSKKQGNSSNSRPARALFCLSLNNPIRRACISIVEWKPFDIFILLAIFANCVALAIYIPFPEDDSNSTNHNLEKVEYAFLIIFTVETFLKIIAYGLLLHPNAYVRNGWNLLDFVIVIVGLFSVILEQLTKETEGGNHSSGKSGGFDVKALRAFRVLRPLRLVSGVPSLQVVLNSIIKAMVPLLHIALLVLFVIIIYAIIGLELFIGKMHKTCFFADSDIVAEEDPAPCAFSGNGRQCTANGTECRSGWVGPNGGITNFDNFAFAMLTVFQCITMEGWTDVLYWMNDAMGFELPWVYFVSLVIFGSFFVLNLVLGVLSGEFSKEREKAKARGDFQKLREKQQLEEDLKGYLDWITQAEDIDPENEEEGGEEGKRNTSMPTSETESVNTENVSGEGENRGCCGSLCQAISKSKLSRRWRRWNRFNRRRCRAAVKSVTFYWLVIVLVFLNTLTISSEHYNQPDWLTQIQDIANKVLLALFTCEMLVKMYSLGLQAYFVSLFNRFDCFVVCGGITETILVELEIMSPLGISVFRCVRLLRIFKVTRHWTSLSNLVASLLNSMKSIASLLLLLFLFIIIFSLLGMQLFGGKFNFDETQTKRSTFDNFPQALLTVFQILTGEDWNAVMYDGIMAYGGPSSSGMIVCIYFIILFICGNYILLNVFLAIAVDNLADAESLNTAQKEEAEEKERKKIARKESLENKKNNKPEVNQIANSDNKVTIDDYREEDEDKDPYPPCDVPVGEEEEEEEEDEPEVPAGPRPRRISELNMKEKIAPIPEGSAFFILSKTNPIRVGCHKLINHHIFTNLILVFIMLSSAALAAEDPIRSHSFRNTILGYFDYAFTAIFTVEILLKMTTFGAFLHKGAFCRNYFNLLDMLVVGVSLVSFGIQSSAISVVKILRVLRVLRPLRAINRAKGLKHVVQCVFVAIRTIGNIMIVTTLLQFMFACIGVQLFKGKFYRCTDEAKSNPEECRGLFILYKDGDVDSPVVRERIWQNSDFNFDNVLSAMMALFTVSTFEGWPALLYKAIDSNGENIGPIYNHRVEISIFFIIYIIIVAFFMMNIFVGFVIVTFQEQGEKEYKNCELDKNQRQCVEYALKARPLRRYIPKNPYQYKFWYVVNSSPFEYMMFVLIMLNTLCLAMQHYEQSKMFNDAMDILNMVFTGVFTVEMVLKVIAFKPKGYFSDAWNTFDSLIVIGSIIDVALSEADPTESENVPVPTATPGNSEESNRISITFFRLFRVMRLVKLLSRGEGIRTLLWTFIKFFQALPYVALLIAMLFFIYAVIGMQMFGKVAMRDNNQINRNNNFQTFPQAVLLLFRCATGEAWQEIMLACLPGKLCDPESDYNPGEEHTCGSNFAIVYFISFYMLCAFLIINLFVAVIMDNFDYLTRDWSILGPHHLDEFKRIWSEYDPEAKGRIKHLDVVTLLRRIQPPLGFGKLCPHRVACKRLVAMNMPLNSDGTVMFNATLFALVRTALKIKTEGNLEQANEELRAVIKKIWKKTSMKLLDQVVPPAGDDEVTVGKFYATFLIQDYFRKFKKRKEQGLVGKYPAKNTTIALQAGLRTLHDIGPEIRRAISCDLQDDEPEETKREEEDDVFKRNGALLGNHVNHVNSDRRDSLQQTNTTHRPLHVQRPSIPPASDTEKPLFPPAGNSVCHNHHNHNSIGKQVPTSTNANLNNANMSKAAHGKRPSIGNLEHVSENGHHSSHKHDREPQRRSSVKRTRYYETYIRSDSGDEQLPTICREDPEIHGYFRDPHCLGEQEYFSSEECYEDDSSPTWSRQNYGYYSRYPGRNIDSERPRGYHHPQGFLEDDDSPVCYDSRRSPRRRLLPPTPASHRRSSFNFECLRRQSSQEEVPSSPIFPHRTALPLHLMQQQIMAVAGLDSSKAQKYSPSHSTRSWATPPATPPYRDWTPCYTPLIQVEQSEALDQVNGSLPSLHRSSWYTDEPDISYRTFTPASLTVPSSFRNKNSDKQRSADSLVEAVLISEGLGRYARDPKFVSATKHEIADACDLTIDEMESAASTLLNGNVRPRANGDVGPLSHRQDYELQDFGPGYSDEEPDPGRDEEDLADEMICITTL

COC(=O)C1=C(C)NC(C)=C([N+](=O)[O-])C1c1ccccc1C(F)(F)F (centres unmarked) [Bay K 8644]
amplification of 30 pA inward barium current: 2 fold
tail currents: small tail currents were detected
